# Results taken from PubChem BioAssay (Tox21).
# Values joined by “and” are separate entries in the source; they are usually repeats but may differ in a detail not shown here. Equal values may be shown once. The inconclusive results got no clear call from the source; some entries with a clear call stand among them for comparison. Potencies beside an inconclusive call are fits to weak or partial responses and may not hold up. A structure can be active in one record and inactive in another. Active and inactive are the calls of the source. Calls follow the shape of the dose curve; as a rule, active = well fitted curve in the direction sought with a large enough effect in the repeat runs; inconclusive = weak or mixed curves; inactive = no such curve, though single readings can be large; an effect the other way counts as inactive or inconclusive.
# Legend:
# [1] = Human pregnane X receptor (PXR) small molecule agonists, qHTS cell viability counter screen (AID 1346977); conditions: PXR-Luc HepG2 viability, CellTiter-Fluor, 24 h; series mostly up to 92.4 µM; also: nearly all actives have a fitted effect of over 50% in size
# Summary of the method: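 Same-well viability read: CellTiter-Fluor added after 23 hr compound exposure, fluorescence measured 1 hr later. Cells were PXR-Luc HepG2 seeded at 2,000/well in 5% charcoal-stripped FBS medium, rested 5 hr before dosing at 37 C.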
# [2] = Caspase-3/7 induction in CHO-K1 cells by small molecules, qHTS cell viability counter screen (AID 1346979); conditions: CellTiter-Fluor fluorescence, 17 h; series mostly up to 92.4 µM; also: nearly all actives have a fitted effect of over 35% in size
# Summary of the method: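 Cytotoxicity counter screen: CellTiter-Fluor added to compound-treated wild-type CHO-K1 cells at 16 h (37C, 5% CO2), fluorescence measured 1 h later; same wells as caspase-3/7 measurement.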
# [3] = Caspase-3/7 induction in CHO-K1 cells by small molecules, qHTS assay (AID 1346980); conditions: CHO-K1 caspase-3/7 induction, Caspase-Glo luminescence, 17 h; series mostly up to 92.4 µM; also: nearly all actives have a fitted effect of over 15% in size
# Summary of the method: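 Luminescent Caspase-Glo 3/7 read (30min, room temperature) quantified apoptosis induction. Cells were wild-type CHO-K1, treated with compound for 17hr at 37 C and 5% CO2.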
# [4] = biological target: Cytochrome P450 2D6 (Homo sapiens) (UniProt P10635); test: Cytochrome P450 Family 2 Subfamily D Member 6 (CYP2D6) small molecule antagonists: luciferase reporter qHTS assay (AID 1671196); conditions: P450-Glo CYP2D6 enzyme assay, luciferin luminescence, 1 h; series mostly up to 115 µM; also: nearly all actives have a fitted effect of over 50% in size
# Summary of the method: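 Luminescence (RLU), read 20 min after detection reagent, indicated CYP2D6 conversion of proluciferin to luciferin during a 1 h NADPH-dependent reaction at room temperature.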
# [5] = biological target: Cytochrome P450 2C19 (Homo sapiens) (UniProt P33261); test: Cytochrome P450 Family 2 Subfamily C Member 19 (CYP2C19) small molecule antagonists: luciferase reporter qHTS assay (AID 1671197); conditions: P450-Glo CYP2C19 enzyme, luciferin luminescence, 1 h; series mostly up to 115 µM; also: nearly all actives have a fitted effect of over 65% in size
# Summary of the method: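 CYP2C19 P450-Glo, 1536-well qHTS. Cpd + enzyme/proluciferin substrate 10 min RT; + NADPH regen, 37C 1 h; stop with luciferin detection reagent, 20 min RT, luminescence (RLU). Pos ctrl ketoconazole.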
# [6] = biological target: Cytochrome P450 2C9 (Homo sapiens) (UniProt P11712); test: Cytochrome P450 Family 2 Subfamily C Member 9 (CYP2C9) small molecule antagonists: luciferase reporter qHTS assay (AID 1671198); conditions: P450-Glo CYP2C9 enzyme assay, luciferin luminescence; series mostly up to 115 µM; also: nearly all actives have a fitted effect of over 50% in size
# Summary of the method: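 Enzyme-substrate mix preincubated with compound 10 min at room temperature; reaction started with NADPH regeneration solution, 1 h 37C. Luminescent luciferin product read after 20 min detection reagent.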
# [7] = biological target: Voltage-gated inwardly rectifying potassium channel KCNH2 (Homo sapiens) (UniProt Q12809); test: Human Ether-a-go-go-Related Gene (hERG) channel small molecule antagonists: fluorescence cell-based qHTS assay (AID 1671200); conditions: hERG-U2OS cells, FluxOR thallium flux fluorescence; series mostly up to 76.8 µM; also: nearly all actives have a fitted effect of over 50% in size
# Summary of the method: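 Thallium flux as potassium surrogate: FluxOR II dye loaded 1 h at room temperature into hERG-expressing U2OS cells, then stimulus buffer added after 10 min. Kinetic 480 nm excitation/540 nm emission read, 2 min.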
# [8] = Caspase-3/7 induction in HepG2 cells by small molecules, qHTS assay (AID 1346978); conditions: HepG2 caspase-3/7 activation, Caspase-Glo luminescence, 17 h; series mostly up to 92.4 µM; also: nearly all actives have a fitted effect of over 15% in size
# Summary of the method: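 Caspase-3/7 induction was measured by Caspase-Glo 3/7 luminescence (30 min, room temperature) after a 17 hr compound exposure of wild-type HepG2 cells seeded at 2,000 per well and pre-incubated 5 hr.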
# [9] = biological target: Cytochrome P450 1A2 (Homo sapiens) (UniProt P05177); test: Cytochrome P450 Family 1 Subfamily A Member 2 (CYP1A2) small molecule antagonists: luciferase reporter qHTS assay (AID 1671199); conditions: P450-Glo CYP1A2 enzyme, luciferin luminescence, 1 h; series mostly up to 115 µM; also: nearly all actives have a fitted effect of over 50% in size
# Summary of the method: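 CYP1A2 turnover of a luminogenic substrate was quantified after 1 h with NADPH regeneration at room temperature. Furafylline served as positive control.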
# [10] = Caspase-3/7 induction in HepG2 cells by small molecules, qHTS cell viability counter screen (AID 1346981); conditions: CellTiter-Fluor fluorescence, 17 h; series mostly up to 92.4 µM; also: nearly all actives have a fitted effect of over 30% in size
# Summary of the method: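 Multiplexed with the caspase-3/7 assay: HepG2 cells, 16 hr compound treatment, CellTiter-Fluor viability detection by fluorescence.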
# [11] = biological target: Cytochrome P450 3A4 (Homo sapiens) (UniProt P08684); test: Cytochrome P450 Family 3 Subfamily A Member 4 (CYP3A4) small molecule antagonists: luciferase reporter qHTS assay (AID 1671201); conditions: P450-Glo CYP3A4 enzyme, luciferin luminescence, 1 h; series mostly up to 115 µM; also: nearly all actives have a fitted effect of over 50% in size
# Summary of the method: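 Recombinant human CYP3A4 converts a proluciferin substrate to luciferin over 1 h at room temperature after NADPH regeneration solution is added (compound preincubated 10 min); detection reagent stops reaction, luminescence read 20 min later as relative units.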
# [12] = biological target: Nuclear receptor subfamily 1 group I member 2 (Rattus norvegicus) (UniProt Q9R1A7); test: Rat pregnane X receptor (rPXR) activation by small molecules, qHTS assay (AID 1346983); conditions: rPXR luciferase reporter cells, One-Glo luminescence, 24 h; max activation: stronger effect = higher value; also: nearly all actives have a fitted effect of over 20% in size
# Summary of the method: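 Luminescent readout (One-Glo luciferase, 30 min room temperature) followed 24 hr compound treatment at 37 C of rPXR cells plated 2,000 per well and preincubated 5hr; qHTS format with compounds delivered in DMSO.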
# Potency is read from the fitted curve at half-maximal effect; tags tell the direction and shape of the fitted curve.
# Sequence of UniProt P05177 (P05177 whole entry, looked up): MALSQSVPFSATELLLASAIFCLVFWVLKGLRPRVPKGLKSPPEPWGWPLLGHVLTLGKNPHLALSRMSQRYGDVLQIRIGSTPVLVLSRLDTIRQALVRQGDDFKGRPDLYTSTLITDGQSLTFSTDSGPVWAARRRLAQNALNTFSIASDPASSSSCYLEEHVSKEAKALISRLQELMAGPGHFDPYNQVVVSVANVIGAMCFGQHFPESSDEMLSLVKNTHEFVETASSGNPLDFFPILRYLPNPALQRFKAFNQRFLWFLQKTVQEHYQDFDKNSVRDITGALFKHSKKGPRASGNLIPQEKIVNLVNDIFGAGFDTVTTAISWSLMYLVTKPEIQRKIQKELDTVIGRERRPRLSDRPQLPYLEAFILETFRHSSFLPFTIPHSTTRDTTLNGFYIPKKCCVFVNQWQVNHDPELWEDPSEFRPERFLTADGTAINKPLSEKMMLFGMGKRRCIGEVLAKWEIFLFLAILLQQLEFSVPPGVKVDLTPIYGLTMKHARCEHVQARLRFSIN
# Sequence of UniProt P33261 (P33261 whole entry, looked up): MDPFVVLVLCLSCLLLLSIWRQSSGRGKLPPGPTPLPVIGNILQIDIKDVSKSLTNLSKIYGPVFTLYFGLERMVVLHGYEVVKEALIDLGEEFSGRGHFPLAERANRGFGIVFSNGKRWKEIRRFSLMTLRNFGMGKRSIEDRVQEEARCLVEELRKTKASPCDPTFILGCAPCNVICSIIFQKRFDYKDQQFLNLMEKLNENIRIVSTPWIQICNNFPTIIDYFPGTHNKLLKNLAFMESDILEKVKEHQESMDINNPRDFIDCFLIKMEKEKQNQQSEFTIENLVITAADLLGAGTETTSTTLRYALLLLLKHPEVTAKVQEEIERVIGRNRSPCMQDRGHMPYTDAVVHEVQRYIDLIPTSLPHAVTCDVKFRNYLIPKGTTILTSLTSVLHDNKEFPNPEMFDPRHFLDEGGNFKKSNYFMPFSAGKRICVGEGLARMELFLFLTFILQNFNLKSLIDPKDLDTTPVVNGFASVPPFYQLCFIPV
# Sequence of UniProt Q12809 (Q12809 whole entry, looked up): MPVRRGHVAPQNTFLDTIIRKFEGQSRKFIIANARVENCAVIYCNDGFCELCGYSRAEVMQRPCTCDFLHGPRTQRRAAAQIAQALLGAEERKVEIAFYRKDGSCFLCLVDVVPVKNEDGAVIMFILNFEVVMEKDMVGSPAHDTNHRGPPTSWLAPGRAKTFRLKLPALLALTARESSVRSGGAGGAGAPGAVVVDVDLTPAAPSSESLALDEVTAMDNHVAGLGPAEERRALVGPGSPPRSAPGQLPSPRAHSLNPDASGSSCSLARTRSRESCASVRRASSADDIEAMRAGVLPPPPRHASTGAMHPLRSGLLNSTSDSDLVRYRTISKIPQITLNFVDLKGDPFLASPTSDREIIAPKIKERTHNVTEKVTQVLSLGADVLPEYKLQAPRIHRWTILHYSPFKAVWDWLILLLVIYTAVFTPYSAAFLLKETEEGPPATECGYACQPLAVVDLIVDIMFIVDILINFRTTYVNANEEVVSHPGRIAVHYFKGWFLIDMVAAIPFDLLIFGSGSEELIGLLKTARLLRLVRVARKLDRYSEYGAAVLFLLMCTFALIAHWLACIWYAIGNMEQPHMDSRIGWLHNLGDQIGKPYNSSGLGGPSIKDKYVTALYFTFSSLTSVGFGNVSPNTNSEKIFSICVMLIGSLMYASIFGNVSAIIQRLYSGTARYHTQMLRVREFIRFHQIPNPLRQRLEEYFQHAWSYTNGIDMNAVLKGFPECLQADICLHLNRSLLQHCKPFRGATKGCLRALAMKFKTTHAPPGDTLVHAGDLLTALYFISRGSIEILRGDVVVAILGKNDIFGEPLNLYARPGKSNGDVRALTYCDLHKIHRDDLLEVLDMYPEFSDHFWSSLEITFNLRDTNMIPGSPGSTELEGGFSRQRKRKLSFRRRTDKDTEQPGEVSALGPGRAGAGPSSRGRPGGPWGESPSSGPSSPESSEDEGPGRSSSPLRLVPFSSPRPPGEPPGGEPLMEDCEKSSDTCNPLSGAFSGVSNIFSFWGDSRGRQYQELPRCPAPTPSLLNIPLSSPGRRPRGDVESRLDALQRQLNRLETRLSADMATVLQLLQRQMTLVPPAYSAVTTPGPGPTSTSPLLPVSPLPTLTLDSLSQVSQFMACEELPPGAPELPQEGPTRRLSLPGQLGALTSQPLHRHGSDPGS
# Sequence of UniProt P11712 (P11712 whole entry, looked up): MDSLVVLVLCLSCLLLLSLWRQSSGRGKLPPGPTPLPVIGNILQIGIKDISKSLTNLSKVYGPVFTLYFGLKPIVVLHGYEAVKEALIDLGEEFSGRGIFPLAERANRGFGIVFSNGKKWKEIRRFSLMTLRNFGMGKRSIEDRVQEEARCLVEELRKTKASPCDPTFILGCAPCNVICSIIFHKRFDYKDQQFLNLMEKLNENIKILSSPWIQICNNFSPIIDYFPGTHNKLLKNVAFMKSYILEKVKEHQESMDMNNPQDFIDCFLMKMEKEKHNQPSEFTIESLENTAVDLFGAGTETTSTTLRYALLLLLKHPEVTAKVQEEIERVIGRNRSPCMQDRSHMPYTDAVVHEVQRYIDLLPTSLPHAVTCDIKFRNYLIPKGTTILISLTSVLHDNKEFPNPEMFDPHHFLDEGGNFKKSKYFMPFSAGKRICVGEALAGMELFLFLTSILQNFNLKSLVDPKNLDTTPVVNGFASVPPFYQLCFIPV
# Sequence of UniProt P10635 (P10635 whole entry, looked up): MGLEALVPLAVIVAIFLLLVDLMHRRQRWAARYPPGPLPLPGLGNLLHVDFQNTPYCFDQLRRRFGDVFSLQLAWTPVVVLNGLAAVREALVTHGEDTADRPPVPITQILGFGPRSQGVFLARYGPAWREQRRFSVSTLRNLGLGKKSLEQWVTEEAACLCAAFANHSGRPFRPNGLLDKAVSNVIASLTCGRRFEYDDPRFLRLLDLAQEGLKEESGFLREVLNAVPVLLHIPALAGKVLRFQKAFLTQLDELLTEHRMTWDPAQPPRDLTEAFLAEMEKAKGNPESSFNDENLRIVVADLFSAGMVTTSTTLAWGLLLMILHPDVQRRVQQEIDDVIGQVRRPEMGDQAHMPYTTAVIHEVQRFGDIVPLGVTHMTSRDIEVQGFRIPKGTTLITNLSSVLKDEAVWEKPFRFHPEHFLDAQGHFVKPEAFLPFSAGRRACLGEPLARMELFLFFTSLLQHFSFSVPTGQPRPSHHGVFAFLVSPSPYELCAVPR
# Sequence of UniProt P08684 (P08684 whole entry, looked up): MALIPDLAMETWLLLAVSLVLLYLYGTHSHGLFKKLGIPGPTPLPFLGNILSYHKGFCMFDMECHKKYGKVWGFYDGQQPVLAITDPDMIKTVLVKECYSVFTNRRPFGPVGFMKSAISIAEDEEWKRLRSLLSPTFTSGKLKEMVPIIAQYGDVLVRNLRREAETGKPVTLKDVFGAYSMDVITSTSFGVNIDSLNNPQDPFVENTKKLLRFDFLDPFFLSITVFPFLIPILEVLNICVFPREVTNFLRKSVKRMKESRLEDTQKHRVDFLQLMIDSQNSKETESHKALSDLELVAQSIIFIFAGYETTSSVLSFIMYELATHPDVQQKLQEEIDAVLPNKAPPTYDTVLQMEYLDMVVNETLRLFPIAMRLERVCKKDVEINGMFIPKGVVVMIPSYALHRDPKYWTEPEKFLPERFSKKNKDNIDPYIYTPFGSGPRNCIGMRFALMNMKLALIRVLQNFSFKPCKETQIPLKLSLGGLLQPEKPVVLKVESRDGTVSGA
# Sequence of UniProt Q9R1A7 (Q9R1A7 whole entry, looked up): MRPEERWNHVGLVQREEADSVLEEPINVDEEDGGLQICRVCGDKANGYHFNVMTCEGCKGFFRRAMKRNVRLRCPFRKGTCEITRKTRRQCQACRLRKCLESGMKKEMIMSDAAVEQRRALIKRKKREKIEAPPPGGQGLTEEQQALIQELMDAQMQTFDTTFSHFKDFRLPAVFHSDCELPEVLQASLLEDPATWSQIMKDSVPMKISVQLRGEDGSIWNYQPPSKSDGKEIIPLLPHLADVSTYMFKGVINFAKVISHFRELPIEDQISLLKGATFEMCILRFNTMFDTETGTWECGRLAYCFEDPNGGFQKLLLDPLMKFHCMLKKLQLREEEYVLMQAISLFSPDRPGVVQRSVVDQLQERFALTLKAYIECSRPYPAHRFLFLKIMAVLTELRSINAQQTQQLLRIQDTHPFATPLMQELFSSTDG
structure (smiles),measurement,setting,value
CCCCC1C(=O)N(c2ccccc2)N(c2ccc(O)cc2)C1=O (configuration not stated),Potency,[1],active: 26.6 µM
same,Potency,[2],active: 3.76 µM
same,Potency,[3],"inconclusive: 3.76 µM [activator, partial curve]"
same,Potency,[4],"inconclusive: 38.9 µM [inhibitor, partial curve]"
same,Potency,[5],active: 17.4 µM
same,Potency,[6],active: 9.77 µM
same,Potency,[7],inactive
c1cc(OCC2CO2)cc(OCC2CO2)c1 (configuration not stated),Potency,[1],active: 60.6 µM
same,Potency,[8],"inconclusive: 68 µM [activator, single point]"
same,Potency,[2],active: 60.6 µM
same,Potency,[4],inconclusive: 79.1 µM [inhibitor]
same,Potency,[5],"inconclusive: 88.7 µM [inhibitor, single point]"
same,Potency,[9],"inconclusive: 88.7 µM [inhibitor, single point]"
Nc1ccc(S(N)(=O)=O)cc1,Potency,[1],"inconclusive: 70.8 µM [cytotoxic, single point]"
same,Potency,[2],"active: 48.8 µM and inactive and inconclusive: 21.1 µM [cytotoxic, partial curve]"
OCCOCCN1CCN(C(c2ccccc2)c2ccc(Cl)cc2)CC1 (configuration not stated),Potency,[1],"active: 24 µM and inconclusive: 18.8 µM [cytotoxic, partial curve, poor fit]"
same,Potency,[2],active: 53.8 µM
CCC(C)OC(C)CC (configuration not stated),Potency,[1],inactive
same,Potency,[2],inactive
O=C1c2ccccc2C(=O)C1(O)O,Potency,[1],inconclusive: 54.8 µM [cytotoxic]
same,Potency,[8],"inconclusive: 68.9 µM [activator, single point]"
same,Potency,[10],"inconclusive: 54.8 µM [cytotoxic, partial curve, poor fit]"
same,Potency,[6],"inconclusive: 56.7 µM [inhibitor, partial curve, poor fit]"
same,Potency,[9],"inconclusive: 40.1 µM [inhibitor, partial curve]"
CCCCCCCCS(=O)C(C)Cc1ccc2c(c1)OCO2 (configuration not stated),Potency,[1],"inconclusive: 69.9 µM [cytotoxic, single point]"
same,Potency,[2],"inconclusive: 69.9 µM [cytotoxic, single point]"
CCCCCCCCCCCCCC[n+]1ccccc1,Potency,[1],active: 8.63 µM
same,Potency,[8],"inconclusive: 68.6 µM [activator, single point]"
same,Potency,[10],active: 27.3 µM
same,Potency,[5],"inconclusive: 89.4 µM [inhibitor, single point]"
same,Potency,[6],"inconclusive: 89.4 µM [inhibitor, single point]"
same,Potency,[11],"inconclusive: 100 µM [inhibitor, single point]"
C[C@]12CC[C@H]3C(=CCc4cc(O)ccc43)[C@@H]1CCC2=O,Potency,[1],inactive
same,Potency,[8],inconclusive: 68.6 µM [activator]
same,Potency,[10],"inconclusive: 68.6 µM [cytotoxic, partial curve, poor fit]"
same,Potency,[11],active: 20 µM
CCCCC/C=C\C=C\C(=O)OCC,Potency,[1],inconclusive: 71.5 µM [cytotoxic]
same,Potency,[8],"inconclusive: 80.2 µM [activator, single point]"
same,Potency,[2],active: 63.7 µM
same,Potency,[7],"inconclusive: 51 µM [inhibitor, partial curve]"
CC(=O)[C@]1(O)Cc2c(O)c3c(c(O)c2[C@@H](O[C@H]2C[C@H](N)[C@H](O)[C@H](C)O2)C1)C(=O)c1ccccc1C3=O,Potency,[1],active: 2.66 µM
same,Potency,[2],active: 11.9 µM
same,Potency,[3],"inconclusive: 33.5 µM [activator, single point]"
same,Potency,[12],"inconclusive: 0.794 µM [activator, full curve, poor fit]"
same,Potency,[4],"inconclusive: 13.8 µM [inhibitor, partial curve, poor fit]"
same,Potency,[5],inconclusive: 17.4 µM [inhibitor]
same,Potency,[6],inconclusive: 17.4 µM [inhibitor]
same,Potency,[9],"inconclusive: 27.5 µM [inhibitor, partial curve]"
COc1cccc(N)c1,Potency,[1],"inconclusive: 61.6 µM [cytotoxic, partial curve, poor fit]"
CCC(=O)O[C@H]1[C@H](O[C@@H]2[C@@H](C)[C@H](O[C@H]3C[C@@](C)(OC)[C@@H](O)[C@H](C)O3)[C@@H](C)C(=O)O[C@H](CC)[C@@](C)(O)[C@H](O)[C@@H](C)C(=O)[C@H](C)C[C@@]2(C)O)O[C@H](C)C[C@@H]1N(C)C,Potency,[1],active: 36.1 µM
same,Potency,[8],"inconclusive: 45.5 µM [activator, single point]"
same,Potency,[2],"inconclusive: 45.5 µM [cytotoxic, single point]"
same,Potency,[10],"inconclusive: 45.5 µM [cytotoxic, single point] and inactive"
same,Potency,[4],"inconclusive: 23.6 µM [inhibitor, partial curve]"
same,Potency,[6],active: 37.4 µM and inactive
same,Potency,[9],"inconclusive: 37.4 µM [inhibitor, partial curve] and inactive"
same,Potency,[7],"inconclusive: 36.4 µM [inhibitor, single point]"
